No constants are given. Whether binding was seen depends on the method and setting. In cells and extracts the contact can be indirect. Some entries that bind do so weakly or less than the wild type. For some of these results: Where a sequence is shown, tags or fusion partners need not be part of it.
T1: Bem1-Cub-RUra3 (S. cerevisiae) (UniProt P29366)
T1 sequence: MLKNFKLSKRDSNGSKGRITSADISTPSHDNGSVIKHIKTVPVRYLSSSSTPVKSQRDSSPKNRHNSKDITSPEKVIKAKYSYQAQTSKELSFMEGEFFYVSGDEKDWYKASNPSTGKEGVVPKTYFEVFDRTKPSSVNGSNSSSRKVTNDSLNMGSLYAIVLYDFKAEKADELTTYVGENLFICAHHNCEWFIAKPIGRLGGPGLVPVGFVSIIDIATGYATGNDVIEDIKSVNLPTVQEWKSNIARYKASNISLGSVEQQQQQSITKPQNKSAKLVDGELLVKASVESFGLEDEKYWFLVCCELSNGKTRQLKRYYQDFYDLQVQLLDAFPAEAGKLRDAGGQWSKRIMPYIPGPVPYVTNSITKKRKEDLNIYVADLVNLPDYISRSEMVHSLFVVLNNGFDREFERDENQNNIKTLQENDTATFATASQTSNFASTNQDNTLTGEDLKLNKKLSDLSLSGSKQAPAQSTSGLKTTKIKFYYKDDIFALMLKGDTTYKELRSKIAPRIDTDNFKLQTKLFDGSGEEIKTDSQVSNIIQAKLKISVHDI

T2: Bem1WK-Cub-RUra3 (S. cerevisiae) (UniProt P29366)
T2 sequence: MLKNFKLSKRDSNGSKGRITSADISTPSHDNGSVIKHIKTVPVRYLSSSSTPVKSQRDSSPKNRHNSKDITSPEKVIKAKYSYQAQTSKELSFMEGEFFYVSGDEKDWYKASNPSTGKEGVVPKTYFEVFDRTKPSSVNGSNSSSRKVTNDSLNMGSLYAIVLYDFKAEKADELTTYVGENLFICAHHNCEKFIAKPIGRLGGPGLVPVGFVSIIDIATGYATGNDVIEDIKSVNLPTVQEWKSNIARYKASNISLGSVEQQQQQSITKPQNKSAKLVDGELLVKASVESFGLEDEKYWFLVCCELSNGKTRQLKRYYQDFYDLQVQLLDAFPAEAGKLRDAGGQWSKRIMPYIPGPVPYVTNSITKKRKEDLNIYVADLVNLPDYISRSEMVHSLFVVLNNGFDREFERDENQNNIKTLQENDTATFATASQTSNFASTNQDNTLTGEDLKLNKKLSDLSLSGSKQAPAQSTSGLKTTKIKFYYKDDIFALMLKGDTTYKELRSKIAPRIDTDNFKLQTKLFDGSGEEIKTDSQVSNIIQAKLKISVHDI

T3: Bem1-mCherry-Cub-RGFP (S. cerevisiae) (UniProt P29366)
T3 sequence: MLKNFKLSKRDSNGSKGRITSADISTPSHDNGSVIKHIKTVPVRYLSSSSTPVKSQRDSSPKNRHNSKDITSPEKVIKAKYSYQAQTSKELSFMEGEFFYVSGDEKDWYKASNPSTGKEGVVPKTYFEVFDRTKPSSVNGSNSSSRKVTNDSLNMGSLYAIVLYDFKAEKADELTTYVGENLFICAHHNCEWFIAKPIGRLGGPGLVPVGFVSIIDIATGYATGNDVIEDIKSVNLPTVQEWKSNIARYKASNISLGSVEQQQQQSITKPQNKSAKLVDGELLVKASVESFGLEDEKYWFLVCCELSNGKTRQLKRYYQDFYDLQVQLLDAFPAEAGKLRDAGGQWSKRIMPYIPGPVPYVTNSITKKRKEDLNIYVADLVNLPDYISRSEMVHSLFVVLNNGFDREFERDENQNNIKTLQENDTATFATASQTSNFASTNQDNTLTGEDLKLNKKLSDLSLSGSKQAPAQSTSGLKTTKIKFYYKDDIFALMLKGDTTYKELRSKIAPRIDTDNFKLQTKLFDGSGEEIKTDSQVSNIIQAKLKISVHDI


How the values were obtained:
[1] = target: T1, Bem1-Cub-RUra3 (S. cerevisiae); assay: split reporter; split-ubiquitin (Split-Ub): a-cells with a Cub-RUra3 (CRU) fusion mated with α-cells with Nub fusions (P_CUP1), diploids as quadruplets on SD medium with 1 mg/ml 5-FOA and copper; growth = interaction; detects direct and indirect interactions
[2] = target: T2, Bem1WK-Cub-RUra3 (S. cerevisiae); assay: as above
[3] = target: T3, Bem1-mCherry-Cub-RGFP (S. cerevisiae); assay: split reporter; SPLIFF as a9, measured at the bud neck from completion of acto-myosin ring contraction until abscission (PCDIII)
[4] = target: T3, Bem1-mCherry-Cub-RGFP (S. cerevisiae); assay: split reporter; SPLIFF (split-ubiquitin with mCherry-Cub-RGFP, CCG): a-cells with the CCG fusion mated with α-cells with Nub-HA fusions; conversion of CCG to CC measured by time-lapse microscopy at the site of cell fusion (PCDI); a significant positive slope = interaction
[5] = target: T3, Bem1-mCherry-Cub-RGFP (S. cerevisiae); assay: split reporter; SPLIFF as a9, measured at the cell front during bud site assembly and bud growth (PCDII)

| binding [1] | binding [2] | binding [4] | binding [5] | Binder | binding [3] |
| --- | --- | --- | --- | --- | --- |
| binds | no binding | binds | binds | Nub-Ste20 (protein, UniProt Q03497 1-939) MSNDPSAVSELPDKDSLDNGISNDNERAMGGNGDGGDGLRLPRTTGTLNVNALQKGTNAAHEAGGYKSMDPAKNAETTNDDDNNVVSLDDPIQFTRVSSSSVISGMSSSMSPHSNIDETKSLEAVTPNINTSNITPDHSADNTFSTINASESDHQFNDTLLSKLSLTDSTETIENNATVKHQQPVASSTVNSNKSSTDIRRATPVSTPVISKPSMTTTPRQINSASHSLSNPKHKQHKPKVKPSKPEAKSKPVSVKKSFPSKNPLKNSSPPKKQTEKSYYSSSSKKRKSGSNSGTLRMKDVFTSFVQNIKRNSQDDKRASSSSNNSSSSSITTALRISTPYNAKHIHHVGVDSKTGEYTGLPEEWEKLLTSSGISKREQQQNMQAVMDIVKFYQDVTETNGEDKMFKTFNTTTGLPGSPQVSTPPANSFNKFPPSTSDSHNYGSRTGTPMSNHVMSPTLNTDSSSANGKFIPSRPAPKPPSSASASAPIIKSPVMNSAANVSPLKQTHAPTTPNRTSPNRSSISRNATLKKEEQPLPPIPPTKSKTSPIISTAHTPQQVAQSPKAPAQETVTTPTSKPAQARSLSKELNEKKREERERRKKQLYAKLNEICSDGDPSTKYANLVKIGQGASGGVYTAYEIGTNVSVAIKQMNLEKQPKKELIINEILVMKGSKHPNIVNFIDSYVLKGDLWVIMEYMEGGSLTDVVTHCILTEGQIGAVCRETLSGLEFLHSKGVLHRDIKSDNILLSMEGDIKLTDFGFCAQINELNLKRTTMVGTPYWMAPEVVSRKEYGPKVDIWSLGIMIIEMIEGEPPYLNETPLRALYLIATNGTPKLKEPENLSSSLKKFLDWCLCVEPEDRASATELLHDEYITEIAEANSSLAPLVKLARLKKVAENMDADEDNDDDNDNEHINKTNNCDDNNDSKETVNLDVTEDDKQK | binds |
| binds | no binding | binds | binds | Nub-Cla4 (protein, UniProt P48562 1-842) MSLSAAANKISDNDFQNIGPAPRPPSSNSQGRTCYNQTQPITKLMSQLDLTSASHLGTSTSKKKSGWVSYKDDGILSFIWQKRYLMLHDSYVALYKNDKQNDDAILKIPLTSIISVSRTQLKQYCFELVRCSDRNSVSSGSSSSLNVSSDSNSKKSIYIATKTESDLHSWLDAIFAKCPLLSGVSSPTNFTHKVHVGFDPETGSFVGMPTNWEKLLKHSRITGEDWNNNSAAVIQVLQFYQEYNGAGNPTNTLDKPQSGETSSSQKSLPNSYNDNKLRNNSVNSKSSSGVSSSMVSQRKTSQPPNTKSPVSLGSGSLPPINTKLPTSQSNIPRHLQNVPNQQYPKMRNGHSPTNGQFPRGPMHPNNSQRSLQQQQQQQQQQKQQHQQYPYHHQGPSPSPSPSPSPLNPYRPHHNMINPYSKQPQSPLSSQSTQNQAIPRYAQNSSPTAAHFQPQRTAPKPPISAPRAPYPSNQNATSNTHVQPVAPKNDQSTPQTMRQAPKRPDADVAQPGGVAKPKKPARPTMSTAEIMSKLKKVTVNADPSQCFKVIEKAGQGASGSVYLAERTHIPTESNMIELINNDIDEPHVGDKVAIKQMVLSKQPRKELIVNEILVMKDSRHKNIVNFLEAYLRTDDDLWVVMEFMEGGSLTDIIENSPTNDNSHSPLTEPQIAYIVRETCQGLKFLHDKHIIHRDIKSDNVLLDTRARVKITDFGFCARLTDKRSKRATMVGTPYWMAPEVVKQREYDEKIDVWSLGIMTIEMLEGEPPYLNEDPLKALYLIATNGTPKLKHPESLSLEIKRFLSVCLCVDVRYRASTEELLHHGFFNMACDPKDLTSLLEWKE | no binding (condition: during PCDIII (abscission)) |

Reference: article PMC7409549, “A time-resolved interaction analysis of Bem1 reconstructs the flow of Cdc42 during polar growth” (Life Science Alliance, 2020)
